Measured values published in patent US8613927B2, “High affinity human antibodies to human nerve growth factor” (Regeneron Pharmaceuticals, Inc., priority 2007, dated 2013).

Target: T1, human NT-3 (Homo sapiens, UniProt P20783)
T1 sequence (P20783 139-257): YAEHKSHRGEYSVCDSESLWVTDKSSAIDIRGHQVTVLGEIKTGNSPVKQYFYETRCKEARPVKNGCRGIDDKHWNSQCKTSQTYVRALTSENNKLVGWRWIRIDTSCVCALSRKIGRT
Test: BIACORE cross-reactivity test, NT-3
Type: binding
Details: NT-3 1.25 nM to 40 nM; purified antibodies
Procedure: The anti-NGF antibodies were examined for binding cross-reactivity with human NT-3. Briefly, goat anti-human IgG polyclonal antibody was chemically linked to a CM5 chip. Anti-NGF monoclonal antibodies were injected forming a surface of about 50 to 900 RU of immobilized antibody through the interaction with the chip coupled polyclonal antibodies. […] Both association and dissociation phases were monitored and data were analyzed. Results are shown in Table 3 (NB=no binding activity observed).

B1: REGN476: HCVR/LCVR SEQ ID NO:224/226 and mutant hIgG4 SEQ ID NO:543 (antibody)
heavy: EVQLVESGGGLVQPGRSLRLSCAAPGFNFDDYAMHWVRQAPGKGLEWVSGISWNSGTIGYADSVKGRFTISRDNAKNSLYLQMNSLRAEDTALYYCAKEGVWFGKLFSSYGMDVWGQGTTVTVSSASTKGPSVFPLAPCSRSTSESTAALGCLVKDYFPEPVTVSWNSGALTSGVHTFPAVLQSSGLYSLSSVVTVPSSSLGTKTYTCNVDHKPSNTKVDKRV[human IgG4 Fc with S228P (EU numbers) omitted here]
VL: EIVMTQSPATLSVSPGERATLSCRASQSVTYNLDWYQQKPGQAPRLLIYGASTRATGIPARFSGSGSGTEFTLTISSLQSEDFAVYYCQQYNNWPYTFGQGTKLEIKR
B1 was tested, and the “affinity for NT-3” value was “none of the test antibodies exhibited measurable affinity”.
